Our source for the displacement values is PubChem BioAssay AID1240 (Sanford-Burnham Center for Chemical Genomics, 2008).

About 800 (1.6%) of roughly 50,000 compounds showed an effect of 50% or more. The list shows a part of the results.

The assay has as its target Bcl-2-like protein 10 (Homo sapiens) (UniProt Q9HD36). Nature of the assay: Phenotype converters, Bcl-B/TR3 peptide binding displacement, primary biochemical FP (AID 1240).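 Also: 0% = Bcl-B with tracer peptide and DMSO and 100% = tracer peptide lacking Bcl-B.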 Conditions: GST-Bcl-B / FITC-TR3 peptide fluorescence polarization; stronger effect = higher value; compound at 3.75 mg/L.
UniProt Q9HD36, sequence (Q9HD36 whole entry, looked up): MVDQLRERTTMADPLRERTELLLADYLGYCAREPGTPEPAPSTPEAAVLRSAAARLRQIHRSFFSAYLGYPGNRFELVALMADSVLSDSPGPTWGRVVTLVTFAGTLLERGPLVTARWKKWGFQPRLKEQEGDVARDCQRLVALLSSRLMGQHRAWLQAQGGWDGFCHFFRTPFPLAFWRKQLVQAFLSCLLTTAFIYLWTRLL
On to `COc1ccc([N+](=O)[O-])cc1-c1ccc(/C=C(\C#N)c2nc3ccc(C)cc3[nH]2)o1`, for which the displacement is -8.5%. For `CCOC(=O)c1c(NC(=O)Cn2cnc([N+](=O)[O-])n2)sc2c1CCC2` the value was 9.4%; for `CCOCCCNc1cc(C)c(C#N)c2nc3ccccc3n12`, -5.3%.

Turning to `Clc1cccc(-c2ncnn2-c2cccc(Cl)c2)c1`, the displacement was found to be 10.5%. Take `COc1ccc(CC(=O)Nc2cccc(NC(=O)Cc3ccc(OC)cc3)c2)cc1`: the displacement amounted to 2%. Take `CCOC(=O)C1=C(C)N=c2s/c(=C\c3ccc(N(C)C)cc3)c(=O)n2C1c1ccc(OC)c(OC)c1` (centres undefined): the displacement was -38.5%. For the compound `O=[N+]([O-])c1cc(-c2nnc(-c3ccccc3)o2)cc([N+](=O)[O-])c1`, the displacement is 5.9%. For `Cc1c(C(=O)Nc2ccc(S(=O)(=O)Nc3nccs3)cc2)cccc1[N+](=O)[O-]` the value was -5%; for `O=C(N/N=C/c1ccc(-c2ccc(Cl)cc2)o1)c1ccccc1`, 9%. As to `O=C(NCC1COc2ccccc2O1)C(c1ccccc1)c1ccccc1` (centres undefined), the displacement stood at 6%. Take `N#Cc1c(-c2cc(Br)cs2)c2c(=O)[nH]c(=O)[nH]c2[nH]c1=O`: the displacement was found to be 5%. Consider `O=C(CN(c1ccc(F)cc1)S(=O)(=O)c1ccccc1)Nc1cccc(Br)c1`, for which the displacement was 1%. Take `CCOc1cccc(/C=N/NC(=O)COc2ccccc2[N+](=O)[O-])c1O`: the displacement amounted to 3.7%.

On to `CCOc1ccc(NC(=O)c2ccc(S(=O)(=O)N(C)C)cc2)c([N+](=O)[O-])c1`, for which the displacement turned out to be 13.2%. Regarding `O=C(CN(c1ccccc1)S(=O)(=O)c1ccccc1[N+](=O)[O-])Nc1ccccc1`, the displacement was determined as 11.8%. For `CCOC(=O)c1ccc(NC(=O)c2ccc(C(=O)Nc3ccc(C(=O)OCC)cc3)cc2)cc1`, the displacement turned out to be 3.8%. Take `O=C1C(Cl)=C(NCc2ccccc2)C(=O)N1c1ccccc1`: the displacement worked out at 13.3%. On to `COc1cccc(NC2=C(Cl)C(=O)N(c3cccc(Cl)c3Cl)C2=O)c1`, for which the displacement is 13.3%. Regarding `Cc1onc(-c2ccccc2)c1C(=O)NCc1ccccc1`, the displacement was -3.4%.

As for `COc1cc(NC(=O)COc2ccc(C(C)(C)C)cc2)c(C(=O)O)cc1OC`, the displacement was -19.8%.

Regarding `COc1ccc(C(=O)c2coc3ccc(O)cc23)cc1`, the displacement amounted to 5.5%.

As for `CCOc1ccccc1NC(=O)c1c(NC(=O)c2ccccc2F)sc2c1CCCCC2`, the displacement turned out to be 4.5%. As to `O=C(Nc1ccccc1)c1cccc(Cl)c1`, the displacement is -3.3%. For `O=C(NCC1CCCO1)c1cnn2c1NC(c1ccc(Br)cc1)CC2C(F)(F)F` (centres undefined) the value was 6.5%.

Regarding `Cc1ccc2c(c1)C(c1ccccc1Cl)CC(=O)N2` (centres undefined), the displacement is -3.4%. As for `CC(C)CCCC(C)CCOC(=O)CN1CCOCC1` (centres undefined), the displacement was -10.6%. For `CCOC(=O)c1ccccc1NS(=O)(=O)c1ccc(OC)cc1` the value was 2.7%. In the case of `CC(C)CN(CC(C)C)S(=O)(=O)c1ccc(C(=O)N2CCOCC2)cc1`, the displacement came to 11.2%.

Take `COC(=O)c1ccc(Oc2ccc(OC(C)=O)cc2)cc1`: the displacement is 2.7%. For `COc1ccccc1NC(=O)CSc1nc2ccc(N3C(=O)c4ccccc4C3=O)cc2s1`, the displacement was determined as 84.2%. Take `CCOC(=O)c1c(NC(=O)c2cccc(C)c2)sc(C(=O)Nc2ccccc2F)c1C`: the displacement was -7.4%. Turning to `CC(Oc1cccc(Cl)c1)C(=O)N1CCN(Cc2ccccc2)CC1` (centres undefined), the displacement was -4.1%. For `CC1=C/C(=N\N=C2\NC(=O)C(CC(=O)Nc3ccc(C(=O)O)cc3)S2)CC(C)(C)C1` (centres undefined) the value was 35%; for `O=S(=O)(Nc1ccc(Oc2ccccc2)cc1)c1ccc2ccccc2c1`, 12.6%; for `COc1ccccc1-n1c(C=C2C(=O)N(Cc3ccccc3)c3ccccc32)nc2ccccc2c1=O`, -10.8%. Consider `CC(C)c1ccc(NS(=O)(=O)c2ccc([N+](=O)[O-])cc2)cc1`, for which the displacement was -3.8%. As for `O=C(Nc1ccccc1C(F)(F)F)c1ccc2ccccc2c1`, the displacement is -0.5%. As to `CCC(CO)N=Cc1c(O)n(-c2c(Cl)cccc2Cl)c2ccccc12` (centres undefined), the displacement is -12.6%. Turning to `CCOC(=O)c1c(NC(=O)c2ccc(Cl)c(Cl)c2)sc(C(=O)Nc2ccccc2)c1C`, the displacement turned out to be 25%.

For `Cc1c(C(=O)Nc2ccc3oc(-c4ccncc4)nc3c2)cccc1[N+](=O)[O-]`, the displacement was -1.3%. Consider `CCOC(=O)C1=CN(c2ccc(OCC)cc2)C=C(C(=O)OCC)C1c1cccs1`, for which the displacement was -4.7%. As to `COc1cccc(C2=NN(C(=O)c3ccccn3)C(O)(C(F)(F)F)C2)c1` (centres undefined), the displacement is -17.2%.

With `Cc1ccc(NC(=O)CCC2CCCC2)nc1`, the displacement stood at 12.2%.

With `COCCNC(=O)Nc1ccc2nccnc2c1`, the displacement came out at 8.7%. In the case of `CCSC1C(C)=C(C)C(=O)N1C(C)(C)c1cc(Cl)cc(Cl)c1` (centres undefined), the displacement came out at 21.2%. For `O=C(Nc1nc2ccccc2[nH]1)C1CC1c1ccccc1` (centres undefined) the value was -3.3%; for `COC(=O)c1ccc(/C=N/NC(=O)C2CC(=O)N(c3ccc(Cl)cc3)C2)cc1` (centres undefined), -5.6%. Turning to `NCCC(=O)N1c2ccccc2Sc2ccc(Cl)cc21`, the displacement was -6.5%. `Cc1ccc(N2C(=O)NC(=O)/C(=C\c3cccc(C)c3)C2=O)cc1`: the displacement is -1.5%.

`COc1cc(C=C2C(=O)OC(C)(C)OC2=O)cc(Br)c1O`: the displacement worked out at 5.9%. For `COc1cc(CN2CCN(C(=O)c3ccc([N+](=O)[O-])cc3)CC2)cc(OC)c1O`, the displacement was -9.1%. For the compound `CCCCN(CCCC)C(=O)c1cccc([N+](=O)[O-])c1`, the displacement is -17.8%. As to `COc1ccc(Nc2ccc([N+](=O)[O-])cc2C(=O)O)cc1`, the displacement was -4.9%.

In the case of `COc1ccc(Br)cc1/C=C/C(=O)NCc1ccccc1`, the displacement was -7.7%. Regarding `O=C(Nc1ccc(Cl)cc1)c1ccc(Br)o1`, the displacement is -0.6%. For `Cc1ccc(S(=O)(=O)N/N=C/c2[nH]c3ccccc3c2Cl)cc1`, the displacement was determined as 14%. For the compound `CN1C(=O)c2ccc(NC(=O)c3ccc(Cl)cc3Cl)cc2C1=O`, the displacement is -12.4%. On to `CCCCCCCCNc1nc(OC)nc(OC)n1`, for which the displacement turned out to be 1.4%. For `COc1ccc(C(=O)Nc2ccccc2)cc1NC(=O)C(C)Oc1ccccc1` (centres undefined), the displacement worked out at 2.3%.

Turning to `O=C(O)CCCC(=O)Nc1nc(-c2ccc(Cl)c(Cl)c2)cs1`, the displacement is -12.3%. On to `COc1cc(OC)c(OC)cc1C=NNC(=O)Cn1nnc2ccccc21`, for which the displacement is -10.1%. For `O=C(NCCCn1ccnc1)C(=O)Nc1ccc(F)cc1`, the displacement worked out at 10.4%. Regarding `COc1ccc(CNC(=O)COc2ccc(OC)cc2)cc1`, the displacement was -12.1%.

As to `N#CCCn1cc(C=O)c(-c2ccc(-c3ccccc3)cc2)n1`, the displacement is 23.1%. Consider `Brc1ccccc1C=NN1CCN(Cc2ccccc2)CC1`, for which the displacement worked out at 5.6%.

In the case of `CCN1C(=O)C(=Cc2ccc(OC)cc2OC)C(=O)NC1=S`, the displacement was determined as 10.3%. `CCc1ccc(C2C(C(=O)OC3CCCC3)=C(C)NC3=C2C(=O)CCC3)cc1` (centres undefined): the displacement came out at 5.9%.

`COc1ccc(-c2cc(C(=O)Nc3ccccc3OC)c3ccccc3n2)cc1`: the displacement was found to be 14.2%.

Regarding `O=C(Cc1ccccc1[N+](=O)[O-])N1CCN(c2ccccc2)CC1`, the displacement stood at 1.6%.

Consider `CC1(C)CC(=O)C2=C(C1)Nc1ccccc1N(C(=S)Nc1ccccc1)C2c1cccc([N+](=O)[O-])c1` (centres undefined), for which the displacement was -6.6%.

For `Cn1cnc2cc(NC(=O)c3ccccc3)ccc21`, the displacement was -4.6%. Consider `CC(/C=C1\SC(=S)N(c2cccc(C(F)(F)F)c2)C1=O)=C\c1ccccc1`, for which the displacement stood at 2.4%. For `COc1ccc(S(=O)(=O)NCC2CCCO2)cc1C(=O)O` (centres undefined), the displacement was determined as 11.2%. Consider `O=C(Cc1ccccc1)N1N=C(c2ccc(Br)cc2)CC1(O)C(F)(F)F` (centres undefined), for which the displacement amounted to 1.1%. Regarding `O=C(CC1(O)C(=O)Nc2ccccc21)c1cccc2ccccc12` (centres undefined), the displacement was found to be 5.6%.

Turning to `COC(=O)c1cc(C(=O)Nc2ccc(F)cc2)cc([N+](=O)[O-])c1`, the displacement came out at 1.6%.

Regarding `O=C(N/N=C/c1cc(O)ccc1[N+](=O)[O-])c1ccccn1`, the displacement stood at 5.4%. For the compound `O=C1NC(=O)N(c2ccccc2Cl)C(=O)/C1=C\C=C\c1ccco1`, the displacement came out at 15.6%. With `O=C(CNC(=O)c1ccccc1)c1ccc(Cl)cc1`, the displacement came out at 2.5%. As for `COc1cccc(OCCOc2ccc(/C=C3/SC(=S)NC3=O)cc2OC)c1`, the displacement amounted to 10.3%. Turning to `Cc1cc(C(=O)NC(C)C23CC4CC(CC(C4)C2)C3)c(C)o1` (centres undefined), the displacement was -4.9%.

Take `CC1=NN(C(=O)CCc2ccccc2)C(O)(c2ccncc2)C1` (centres undefined): the displacement is -20%. Regarding `O=C(NCCCO)/C(=C\c1ccco1)NC(=O)c1ccco1`, the displacement came to 14.9%. With `c1ccc(OCCN2CCCCC2)cc1`, the displacement was -11.5%. For the compound `CCc1ccc(-c2nc3cc(NC(=O)COc4ccccc4[N+](=O)[O-])ccc3o2)cc1`, the displacement stood at 4.1%. Consider `N#Cc1c(N)[nH]c(=S)c(C#N)c1-c1ccc(Br)cc1`, for which the displacement stood at 3.2%. For `Cc1ccc(C(=O)/C=C/c2cn(Cc3ccccc3)c3ccccc23)cc1` the value was 11.9%; for `O=C(O)c1cnn2c1NC(c1cccs1)CC2C(F)(F)F` (centres undefined), 0%. Take `CCOc1ccc(-c2nc3cc(NC(=O)c4ccc(Br)o4)ccc3o2)cc1`: the displacement is -7%. On to `O=C(N/N=C/c1ccccc1O)C1CC(=O)N(c2ccc(Br)cc2)C1` (centres undefined), for which the displacement is -27.4%. For the compound `O=C(c1cccc(F)c1)N1CCN(C2CCCCCC2)CC1`, the displacement was -13.9%.

In the case of `Cc1ccc(-c2cc(-c3cc(C)ccc3O)[nH]n2)cc1`, the displacement is -5.9%. For `COc1ccc(C2=C(Nc3ccc4oc5ccccc5c4c3)c3ccccc3C2=O)cc1` the value was 14.6%. In the case of `CC(C)c1ccc(C=Nc2ccc3[nH]c(=O)[nH]c3c2)cc1`, the displacement is -3.8%. Take `COc1ccc(/C=C2/C(=O)NC(=O)N(c3ccc(C(C)C)cc3)C2=O)cc1`: the displacement is -114%.

As for `COc1ccc(C(=O)NCCOc2ccccc2F)cc1OC`, the displacement was found to be 7.6%. `O=C(O)CCC(=O)N1N=C(c2ccc(Br)cc2)CC1c1cccc([N+](=O)[O-])c1` (centres undefined): the displacement was determined as 15.9%. As for `CCC/C(O)=C1\C(=O)CC(C)(C)CC1=Nc1ccc([N+](=O)[O-])cc1`, the displacement was 3.2%. With `CCOc1ccc(C(=O)N2CC(C)OC(C)C2)cc1OCC` (centres undefined), the displacement turned out to be 11.4%. For `O=C(c1ccccc1)c1coc2c1C(=O)c1ccccc1C2=O` the value was -0.4%; for `O=C(O)C1C(C(=O)Nc2ccccc2)C2C=CC1C21CC1` (centres undefined), -18%; for `Cc1nc2cc(-c3ccc(Br)cc3)[nH]n2c(=O)c1C`, -6.7%. Turning to `N#C/C(=C/c1cccc2ccccc12)c1ccc([N+](=O)[O-])cc1`, the displacement came out at 0.8%. Consider `c1cncc(CNc2cccc(-c3nc4ccccc4s3)c2)c1`, for which the displacement amounted to 8.7%.

With `O=C(NC(=S)NNc1ccccc1)c1cc2ccccc2oc1=O`, the displacement is -3.6%.

As for `Cc1cc(-n2cc(I)c(=O)[nH]c2=O)nc(-c2ccccc2)n1`, the displacement is -50%. As for `Cc1cc(OCC(=O)Nc2cc([N+](=O)[O-])ccc2Cl)cc(C)c1Cl`, the displacement is -0.5%. For `COCCNC(=O)C(=O)NCCc1ccccc1`, the displacement turned out to be 16.4%. For `COC(=O)c1cc(C(=O)NCc2ccc(OC)cc2)cc([N+](=O)[O-])c1`, the displacement amounted to 12.9%.
